Reference: PubChem BioAssay AID686979 (National Center for Advancing Translational Sciences (NCATS), 2013)
Screen size: about 420,000 compounds; about 50,000 (12%) were called active. Inconclusive results (about 26%) are left out. Calls follow the shape of the dose curve; as a rule, active = well fitted inhibition curve with a large enough effect; inconclusive = small, poorly fitted or top-dose-only effect; inactive = flat fitted curve, though single readings scatter. This is a selection; strong and weak results do not stand in their true shares. The source holds several records for some structures; these can differ, active in one and inactive in another.

Experiment: qHTS for Inhibitors of human tyrosyl-DNA phosphodiesterase 1 (TDP1): qHTS in cells in presence of CPT; also: nearly all actives have a fitted effect of over 55% in size
Conditions: chicken DT40 Tdp1-/-;hTDP1 cells + 20 nM CPT, ATP luminescence, 48 h; series mostly up to 46.2 µM; activity change, negative = growth inhibition: at the top concentration
Outline: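 Cell growth measured by CellTiter-Glo luminescence after a minimum 48 h, 37 C compound exposure with 20 nM CPT in Tdp1-knockout DT40 cells stably expressing hTDP1, seeded 400/well; qHTS titration format.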
% is scaled to controls: 0 for no effect and ±100 for the full control effect; potency is read from the fitted curve at half-maximal effect.

Row | SMILES | activity change, negative = growth inhibition | Potency
1 | O=C(CCCN1CCC(O)(c2ccc(Cl)cc2)CC1)c1ccc(F)cc1 | inactive: -3.25% | 
2 | COC(=O)[C@@H](N)CS | inactive: -8.64% | 
3 | CCCCNC(=O)CCn1c(=O)c2ccccc2n(Cc2cc(C)ccc2C)c1=O | inactive: -3.9% | 
4 | COc1ccc(C2C(C#N)=C3NC(=O)c4c(sc5c4CCCCC5)N3C3=C2C(=O)CC(C)(C)C3)cc1 (stereo not given) |  | active: 16.4 µM
5 | COc1ccc(OC)c(C2C(C(N)=O)=C(C)Nc3nc(-c4cccc(Cl)c4)nn32)c1 (stereo not given) | inactive: -10.3% | 
6 | COc1ccc(NS(=O)(=O)c2ccc(C(=O)N3CCCCCC3)cc2)cc1 |  | active: 10.3 µM
7 | O=C(NCc1ccccc1)C1=C[C@@H](c2ccc3c(c2)OCO3)C[C@@H](OCCCCO)O1 | inactive: -13.3% | 
8 | c1cncc(-c2nnc(-c3cccnc3)nn2)c1 |  | active: 2.91 µM
9 | Cc1cccc(C)c1OCCOCCN1CCN(C)CC1 | inactive: -10.9% | 
10 | O=C1NC[C@H](c2ccccc2)OC(=O)[C@@H](Cc2ccc(F)cc2)CC/C=C/C[C@H]1CC(=O)N(CCO)Cc1ccccc1 |  | active: 13 µM
